Experimental data: article PMC6919601, “Identification of Plasmodium dipeptidyl aminopeptidase allosteric inhibitors by high throughput screening” (PLoS ONE, 2019)
In all, about 110,000 compounds went through this assay and about 230 (0.21%) showed an effect of 50% or more. The list shows a part of the results.

biological target: DPAP1 (Plasmodium falciparum, UniProt Q8IIJ9); experiment: primary screen, percent inhibition; read by cleavage of a fluorogenic dipeptide substrate; higher = more effect of the substance; set-up: species or system P. falciparum D10 trophozoite lysates; single well
Sequence (Q8IIJ9 whole entry, looked up): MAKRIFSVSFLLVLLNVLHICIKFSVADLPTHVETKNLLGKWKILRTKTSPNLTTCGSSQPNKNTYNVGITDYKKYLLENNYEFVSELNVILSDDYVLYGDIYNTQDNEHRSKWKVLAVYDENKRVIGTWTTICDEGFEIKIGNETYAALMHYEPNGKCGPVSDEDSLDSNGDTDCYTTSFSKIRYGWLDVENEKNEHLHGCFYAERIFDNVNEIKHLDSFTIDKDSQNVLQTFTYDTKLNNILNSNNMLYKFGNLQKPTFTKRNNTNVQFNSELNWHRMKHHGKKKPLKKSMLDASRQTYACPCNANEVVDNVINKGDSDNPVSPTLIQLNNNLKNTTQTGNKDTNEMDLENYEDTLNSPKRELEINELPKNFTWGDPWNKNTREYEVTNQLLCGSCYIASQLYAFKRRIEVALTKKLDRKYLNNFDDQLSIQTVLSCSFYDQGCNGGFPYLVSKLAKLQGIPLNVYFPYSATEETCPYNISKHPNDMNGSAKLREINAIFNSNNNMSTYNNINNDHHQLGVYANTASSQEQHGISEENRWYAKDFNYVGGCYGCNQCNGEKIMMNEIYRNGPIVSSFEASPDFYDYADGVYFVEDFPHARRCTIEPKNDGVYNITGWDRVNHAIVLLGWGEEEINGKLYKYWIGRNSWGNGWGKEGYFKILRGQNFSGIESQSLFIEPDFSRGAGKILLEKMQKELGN
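Further: 30 min substrate incubation versus DMSO and 10 µM JCP410 controls.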

| Structure (SMILES) | % Inhibition @ 10 uM |
| --- | --- |
| O=C(c1cccc(F)c1)N1CCN(c2nc(-c3cccs3)cc(C(F)(F)F)n2)CC1 | 9.56% |
| O=C(Nc1cccnc1)c1scc2c1CCCC2 | 1.01% |
| CC(Oc1ccc(C#N)cc1)C(=O)N1N=C(C(F)F)CC1(O)C(F)F (stereo not drawn) | -1.04% |
| CC1CCC(NC(=O)c2ccc3snnc3c2)CC1 (stereo not drawn) | -0.0235% |
| O=C(Cn1cnc2c(oc3ccccc32)c1=O)NCc1ccc2c(c1)OCO2 | -6.05% |
| O=[N+]([O-])c1ccc(Cl)c(CN2CCN(c3cccc(Cl)c3)CC2)c1 | -3.65% |
| NC(=O)c1cc(S(=O)(=O)Nc2cccc(F)c2)ccc1O | 1.03% |
| Cc1ccc(-n2nnc3c(=O)n(CC(=O)NCc4ccco4)cnc32)cc1 | -0.431% |
| N#CCNC(=O)[C@@H](Cc1ccc(C#N)cc1)NC(=O)OCc1ccccc1 | -3.14% |
| CNC(=O)C(C)n1nc(C)c2c(C)n(-c3ccccc3)nc2c1=O (stereo not drawn) | -7.74% |
| COc1cc2c(C(=O)NCc3ccccn3)cn(C)c(=O)c2cc1OC | 37.9% |
| CCOC(=O)N1CCN(C(=O)Cn2nc(C)c3sc4ccccc4c3c2=O)CC1 | -5.78% |
| COc1ccccc1N1CCN(C(=O)CN2C(=O)C3CCCCC3C2=O)CC1 (stereo not drawn) | 1.62% |
| Cc1cccc(C(=O)OC[C@@H]2CCCN3CCCC[C@H]23)c1 | -4.01% |
| Cc1ccc(CNc2c(-c3ccc(C(C)C)cc3)c(=O)c2=O)cc1 | 0.589% |
| Cc1ccc(S(=O)(=O)Nc2ccc(C(=O)Nc3ccncc3)cc2)cc1 | -1.61% |
| Cc1ccc(S(=O)(=O)N(CC(=O)NC2CC3CCC2C3)c2ccccc2F)cc1 (stereo not drawn) | 3.81% |
| Cc1ccc(CN2C(=O)N/C(=C/c3ccsc3)C2=O)cc1 | 4.11% |
| N#Cc1ccc(N2CCN(c3ccc(F)cc3)CC2)cc1 | 4.78% |
| CC1=C(C#N)C(=O)NC(=O)/C1=C\c1ccc(-c2cc(Cl)cc(Cl)c2)o1 | 0.484% |
| CCn1c(C(=O)NCCCc2ccccc2)cc2sc(Cl)cc21 | 0.0873% |
| Nc1ccc(S(=O)(=O)NCCO)cc1 | 3.06% |
| COc1cc2c(cc1OC)CN(C(=O)C(C)(C)C)CC2 | -0.386% |
| O=C(CCn1c(=O)c2cccn2c2cccnc21)N1CCN(C(=O)c2ccco2)CC1 | -3.61% |
| O=C(CCNS(=O)(=O)c1cccc2nsnc12)N1CCN(c2ccccn2)CC1 | 2.06% |
| O=C(Cc1cccs1)N1CCN(c2cccc(Cl)c2)CC1 | 0.605% |
| CCc1c(C)c2cc3c(C)c(C)oc3cc2oc1=O | -1.15% |
